{"source": "paper PMC5501724", "about": "“Structural Basis for Specific Interaction of TGFβ Signaling Regulators SARA/Endofin with HD-PTP” (Structure(London, England:1993), 2017)", "key": {"HD-PTP-myc (human)": {"target": "HD-PTP-myc (human) (UniProt Q9H3S7)", "assay": "co-IP; co-expressed HD-PTP and endofin/SARA (Figure S1B); HD-PTP-myc/endofin-Strep IP from HeLa cells stably expressing HD-PTP-myc induced with doxycyclin"}, "[1]": {"target": "HA-HD-PTP (hemagglutinin-tagged HD-PTP, wild type) (human) (UniProt Q9H3S7)", "assay": "co-IP; HA-tagged HD-PTP constructs expressed in cells; lysates in IP1 buffer (25 mM Tris-HCl pH 7.5, 40 mM NaCl, 0.5% IGEPAL); anti-HA immunoprecipitates blotted for endogenous endofin or SARA"}, "[2]": {"target": "T1, His6-HD-PTP_(Bro1-CC) (1-714), bacterially expressed (human) (UniProt Q9H3S7)", "T1 sequence": "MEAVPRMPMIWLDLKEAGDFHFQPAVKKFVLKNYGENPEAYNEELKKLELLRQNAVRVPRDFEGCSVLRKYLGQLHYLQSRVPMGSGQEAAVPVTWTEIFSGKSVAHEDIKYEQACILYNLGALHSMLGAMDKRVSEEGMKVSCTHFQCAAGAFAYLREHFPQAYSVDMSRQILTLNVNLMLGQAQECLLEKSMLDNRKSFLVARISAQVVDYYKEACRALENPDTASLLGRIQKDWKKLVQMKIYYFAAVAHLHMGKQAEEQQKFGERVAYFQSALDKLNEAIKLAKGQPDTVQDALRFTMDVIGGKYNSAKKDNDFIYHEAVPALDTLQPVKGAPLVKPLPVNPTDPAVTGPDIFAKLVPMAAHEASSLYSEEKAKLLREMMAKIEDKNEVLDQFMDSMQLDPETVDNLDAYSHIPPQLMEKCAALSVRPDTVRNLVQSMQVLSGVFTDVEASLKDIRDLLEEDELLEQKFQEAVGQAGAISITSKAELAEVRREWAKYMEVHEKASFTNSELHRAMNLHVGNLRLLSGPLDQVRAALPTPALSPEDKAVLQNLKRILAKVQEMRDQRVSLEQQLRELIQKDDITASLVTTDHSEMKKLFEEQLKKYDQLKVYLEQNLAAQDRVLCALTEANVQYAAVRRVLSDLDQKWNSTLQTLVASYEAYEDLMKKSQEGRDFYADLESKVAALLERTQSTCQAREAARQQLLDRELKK", "assay": "co-IP; 20 μl in vitro translated 35S-endofin(1-84)-strep incubated with 5 μg bacterially expressed His6-HD-PTP Bro1-CC in IP2 buffer (20 mM Hepes pH 7.4, 100 mM NaCl, 1 mM MgCl2, 1% Triton X-100), 4°C; anti-His antibody and protein A-sepharose; phosphorimaging; only the target purified"}}, "note": "Results are given in words; binding and its absence hold for the method and conditions named. Binding seen in cells or lysates may run through a third protein. Some binding calls cover weakened binding; strength is not graded here. For part of these data: Sequences can lack the tags named with a protein.", "data": [{"molecule": "FL endofin-Strep-tag (from UniProt Q7Z3T8 1-1539)", "values": [{"measurement": "binding", "setting": "HD-PTP-myc (human)", "value": "binds"}]}, {"molecule": "endogenous SARA (protein, UniProt O95405 1-1425) MENYFQAEAYNLDKVLDEFEQNEDETVSSTLLDTKWNKILDPPSHRLSFNPTLASVNESAVSNESQPQLKVFSLAHSAPLTTEEEDHCANGQDCNLNPEIATMWIDENAVAEDQLIKRNYSWDDQCSAVEVGEKKCGNLACLPDEKNVLVVAVMHNCDKRTLQNDLQDCNNYNSQSLMDAFSCSLDNENRQTDQFSFSINESTEKDMNSEKQMDPLNRPKTEGRSVNHLCPTSSDSLASVCSPSQLKDDGSIGRDPSMSAITSLTVDSVISSQGTDGCPAVKKQENYIPDEDLTGKISSPRTDLGSPNSFSHMSEGILMKKEPAEESTTEESLRSGLPLLLKPDMPNGSGRNNDCERCSDCLVPNEVRADENEGYEHEETLGTTEFLNMTEHFSESQDMTNWKLTKLNEMNDSQVNEEKEKFLQISQPEDTNGDSGGQCVGLADAGLDLKGTCISESEECDFSTVIDTPAANYLSNGCDSYGMQDPGVSFVPKTLPSKEDSVTEEKEIEESKSECYSNIYEQRGNEATEGSGLLLNSTGDLMKKNYLHNFCSQVPSVLGQSSPKVVASLPSISVPFGGARPKQPSNLKLQIPKPLSDHLQNDFPANSGNNTKNKNDILGKAKLGENSATNVCSPSLGNISNVDTNGEHLESYEAEISTRPCLALAPDSPDNDLRAGQFGISARKPFTTLGEVAPVWVPDSQAPNCMKCEARFTFTKRRHHCRACGKVFCASCCSLKCKLLYMDRKEARVCVICHSVLMNAQAWENMMSASSQSPNPNNPAEYCSTIPPLQQAQASGALSSPPPTVMVPVGVLKHPGAEVAQPREQRRVWFADGILPNGEVADAAKLTMNGTSSAGTLAVSHDPVKPVTTSPLPAETDICLFSGSITQVGSPVGSAMNLIPEDGLPPILISTGVKGDYAVEEKPSQISVMQQLEDGGPDPLVFVLNANLLSMVKIVNYVNRKCWCFTTKGMHAVGQSEIVILLQCLPDEKCLPKDIFNHFVQLYRDALAGNVVSNLGHSFFSQSFLGSKEHGGFLYVTSTYQSLQDLVLPTPPYLFGILIQKWETPWAKVFPIRLMLRLGAEYRLYPCPLFSVRFRKPLFGETGHTIMNLLADFRNYQYTLPVVQGLVVDMEVRKTSIKIPSNRYNEMMKAMNKSNEHVLAGGACFNEKADSHLVCVQNDDGNYQTQAISIHNQPRKVTGASFFVFSGALKSSSGYLAKSSIVEDGVMVQITAENMDSLRQALREMKDFTITCGKADAEEPQEHIHIQWVDDDKNVSKGVVSPIDGKSMETITNVKIFHGSEYKANGKVIRWTEVFFLENDDQHNCLSDPADHSRLTEHVAKAFCLALCPHLKLLKEDGMTKLGLRVTLDSDQVGYQAGSNGQPLPSQYMNDLDSALVPVIHGGACQLSEGPVVMELIFYILENIV", "values": [{"measurement": "binding", "setting": "[1]", "value": "binds"}]}, {"molecule": "endofin(1–84/L15P)-strep, in vitro translated (domain or fragment, UniProt Q7Z3T8 1-84, 35S-methionine) MDSYFKAAVSDLDKPLDDFEQNPDEQDYLQDVQNAYDSNHCSVSSELASSQRTSLLPKDQECVNSCASSETSYGTNESSLNEKT", "values": [{"measurement": "binding", "setting": "[2]", "value": "no binding"}]}]}
